# These are yes or no findings as the source states them, for the method shown. In cells and extracts the contact can be indirect. Some entries that bind do so weakly or less than the wild type. Tags and fused reporters may be left off the sequences shown.
# T1: Flag-tagged Cep120 (mouse) (UniProt Q7TSG1)
# T1 sequence: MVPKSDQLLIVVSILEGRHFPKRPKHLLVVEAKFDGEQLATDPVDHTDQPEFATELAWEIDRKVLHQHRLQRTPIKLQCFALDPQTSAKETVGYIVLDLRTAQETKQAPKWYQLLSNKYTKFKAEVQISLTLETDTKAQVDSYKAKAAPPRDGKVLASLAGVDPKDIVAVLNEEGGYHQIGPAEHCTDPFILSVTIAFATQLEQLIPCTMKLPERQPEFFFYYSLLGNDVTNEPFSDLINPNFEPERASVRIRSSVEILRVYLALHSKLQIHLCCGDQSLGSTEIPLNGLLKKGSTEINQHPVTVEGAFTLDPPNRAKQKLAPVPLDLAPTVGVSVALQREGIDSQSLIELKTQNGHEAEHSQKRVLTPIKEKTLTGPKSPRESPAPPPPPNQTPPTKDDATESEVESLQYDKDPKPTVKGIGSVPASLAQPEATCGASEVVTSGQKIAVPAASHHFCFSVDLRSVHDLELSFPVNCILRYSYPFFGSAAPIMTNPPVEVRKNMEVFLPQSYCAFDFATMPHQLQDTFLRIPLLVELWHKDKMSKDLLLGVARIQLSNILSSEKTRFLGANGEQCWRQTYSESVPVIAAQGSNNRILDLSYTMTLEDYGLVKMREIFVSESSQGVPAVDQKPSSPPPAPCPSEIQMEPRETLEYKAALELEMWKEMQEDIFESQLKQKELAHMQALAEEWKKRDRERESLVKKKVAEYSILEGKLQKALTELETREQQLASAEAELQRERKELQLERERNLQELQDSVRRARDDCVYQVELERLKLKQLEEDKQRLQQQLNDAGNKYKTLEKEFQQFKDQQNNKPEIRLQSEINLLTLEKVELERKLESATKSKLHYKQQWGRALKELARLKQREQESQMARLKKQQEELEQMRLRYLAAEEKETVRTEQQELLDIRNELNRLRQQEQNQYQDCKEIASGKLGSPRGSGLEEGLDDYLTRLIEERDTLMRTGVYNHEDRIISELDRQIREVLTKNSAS
# B1: Ta3 1-470 aa fragment (domain or fragment, UniProt E9PV87 1-470)
# chain: MKNVEFSLERGQRLKMPARKLREIVSPNQGNKLAVVEDELPRVPPALAANKRLAVETRTSSNGTLCGSLDLTSARLYHQPLLESPPASKKSDFSKDAVVRQLPLNKTEENNAPKANDIFISQYTMGQKDALRTVLKQKAQSMPVFKAVKVHLFEDTSTEKNTVAQETETPPNRIDSATTVAAATAAAIATAAPLIKVQSDLEAKVNCVGELLTKLQETDKQLQRVTEHQASVQSKQEKVHCHDHDKQMNAFMEQHIRHLEKLQQQQIDIQTHFIDAALKASSLQLGMSTSRAVGKYSGKLGSPSVGSSVFSHNTFVSKRVPLSEDTDFDGQKSPLETPAPRRFAPVPVSRDGKITKRESPTEEKENMEMNSPKGNVRLLEQVLNSNECLTRKTESSDITSLTQPKMGWNLEKRDSTETLHSQIFPSSEERGTAQVPVPKYNDVVHDLGQKKQASDMLQIKQSPVTLRLSD
# B2: Ta3 639-E aa fragment (domain or fragment, UniProt E9PV87 639-1520)
# chain: LQDEDYMLQIYGKPVYQGHRSTLKKGPYLRFSSPSPKAKPQRPRVIELVKGTKVKSAKTQTDFHAASRMKMDSKIQHPITALPHADQQYMVSPSREMPTVSGTLEGHLIPMAILLGQTQSNSDSMPPAGVTVNKPRPVTVTTSIPPASRKGNAGVKKPNVAIVEMKSEKKDPPQLSVQILPSVDIDSVSYSSTDGASSPPSPKEASLPPLHTWIQTPDFMKVDEEEVPLPGTNFDEVIDVIQEEEKRDEIPECSAPMLEFNRSVKVVPTKYNGPSFPPVVSAYHPTTDILDKVIERKETLENSLIQWVEQEIMSRIISGLFPLQQQARLDASVSVSEASEPSASDIVAGTSSGALQRMVDARVPVNSDMVSHFVNEALTETIAVMLADREAERQRAAATSVPGDLSGTETNLLARVCAPVATPQPTPPCSPSPVREHVRVKTPDSSPCESDPDAASSIKEIRVEKGSDMPAVMLVSTPTRTPVATPPPAAALTPTLSETSIDKLKLSSPELPKPWDSGDLPLDEENPNSLQELPHPRAVVMSVANEEPESVDFSAQPAPPEPAPSAPLPEGTKAPSLQRVPSSGSSTLENTLSTVTETETLDRHISEGEILFSCGQNLATKRPGDLFLMNINDSLSSTLQDALEMEDDPPSEGQVIRRPHKKRHEDAIVALLTKQQRELLVSQQEEDLDNSVGELSEGQRLVLKAAEDISAGPSGQMLPPTSPAEPSYQHADPRLVLQQSDMASGNICEDLCASHGPMSLRELELQPDSNLILPITHTTTAVSDGNLPEAAEDFSQYQQKQDSDIKQVEHKPIQRHLTSVRNKPDSTLSQHQGGPADLLLIAHVSPARMSVTLPSANLEDCSQSLSTSSMHGGTESSGTDTF
# B3: Ta3 1-639 aa fragment (domain or fragment, UniProt E9PV87 1-639)
# chain: MKNVEFSLERGQRLKMPARKLREIVSPNQGNKLAVVEDELPRVPPALAANKRLAVETRTSSNGTLCGSLDLTSARLYHQPLLESPPASKKSDFSKDAVVRQLPLNKTEENNAPKANDIFISQYTMGQKDALRTVLKQKAQSMPVFKAVKVHLFEDTSTEKNTVAQETETPPNRIDSATTVAAATAAAIATAAPLIKVQSDLEAKVNCVGELLTKLQETDKQLQRVTEHQASVQSKQEKVHCHDHDKQMNAFMEQHIRHLEKLQQQQIDIQTHFIDAALKASSLQLGMSTSRAVGKYSGKLGSPSVGSSVFSHNTFVSKRVPLSEDTDFDGQKSPLETPAPRRFAPVPVSRDGKITKRESPTEEKENMEMNSPKGNVRLLEQVLNSNECLTRKTESSDITSLTQPKMGWNLEKRDSTETLHSQIFPSSEERGTAQVPVPKYNDVVHDLGQKKQASDMLQIKQSPVTLRLSDHPHNPALLQTTNTRSVLKDAAKILRGVQNNKKVLEENLEAIVRAKDGAAMYSFINALATNREMSEKIRIRKQVDEWIKIISAEIQDELMRKDYEQKRFDPKNQRNKKALTMSRDIKANNQEKTVNRSVIPRSHYQKQTQEQFTSPPVRNLPASGPQKERSGLLKSATTL
# B4: Ta3 471-E aa fragment (domain or fragment, UniProt E9PV87 471-1520)
# chain: HPHNPALLQTTNTRSVLKDAAKILRGVQNNKKVLEENLEAIVRAKDGAAMYSFINALATNREMSEKIRIRKQVDEWIKIISAEIQDELMRKDYEQKRFDPKNQRNKKALTMSRDIKANNQEKTVNRSVIPRSHYQKQTQEQFTSPPVRNLPASGPQKERSGLLKSATTLQDEDYMLQIYGKPVYQGHRSTLKKGPYLRFSSPSPKAKPQRPRVIELVKGTKVKSAKTQTDFHAASRMKMDSKIQHPITALPHADQQYMVSPSREMPTVSGTLEGHLIPMAILLGQTQSNSDSMPPAGVTVNKPRPVTVTTSIPPASRKGNAGVKKPNVAIVEMKSEKKDPPQLSVQILPSVDIDSVSYSSTDGASSPPSPKEASLPPLHTWIQTPDFMKVDEEEVPLPGTNFDEVIDVIQEEEKRDEIPECSAPMLEFNRSVKVVPTKYNGPSFPPVVSAYHPTTDILDKVIERKETLENSLIQWVEQEIMSRIISGLFPLQQQARLDASVSVSEASEPSASDIVAGTSSGALQRMVDARVPVNSDMVSHFVNEALTETIAVMLADREAERQRAAATSVPGDLSGTETNLLARVCAPVATPQPTPPCSPSPVREHVRVKTPDSSPCESDPDAASSIKEIRVEKGSDMPAVMLVSTPTRTPVATPPPAAALTPTLSETSIDKLKLSSPELPKPWDSGDLPLDEENPNSLQELPHPRAVVMSVANEEPESVDFSAQPAPPEPAPSAPLPEGTKAPSLQRVPSSGSSTLENTLSTVTETETLDRHISEGEILFSCGQNLATKRPGDLFLMNINDSLSSTLQDALEMEDDPPSEGQVIRRPHKKRHEDAIVALLTKQQRELLVSQQEEDLDNSVGELSEGQRLVLKAAEDISAGPSGQMLPPTSPAEPSYQHADPRLVLQQSDMASGNICEDLCASHGPMSLRELELQPDSNLILPITHTTTAVSDGNLPEAAEDFSQYQQKQDSDIKQVEHKPIQRHLTSVRNKPDSTLSQHQGGPADLLLIAHVSPARMSVTLPSANLEDCSQSLSTSSMHGGTESSGTDTF
# Molecular target: T1, Flag-tagged Cep120 (mouse)
# Test: co-IP; FLAG-Cep120 coexpressed with Ta3 or Ta3 truncations in HEK293 cells; lysates immunoprecipitated and immunoblotted with the indicated antibodies
row,binding,Molecule
1,binds,"Talpid3 (Ta3), full length (from UniProt E9PV87 1-1520)"
2,no binding,B1
3,no binding,B2
4,binds,B3
5,binds,B4

# From publication PMC4176001
